# Experimental data from the supplement of paper PMC6135742.
# Counter-ions that a name gives are not always drawn. ± gives the standard deviation of the averaged measurements. The full ranking holds about 2,600 compounds; the median of “total cell number (DAPI+ nuclei) relative to DMSO vehicle control” is about -1.4, and the lowest 2% start at about -23. This is one part of the list.
# Test system: jimpy (Plp1 jimpy) mouse iPSC-derived oligodendrocyte progenitor cells
# Assay: total cell number (DAPI+ nuclei) relative to DMSO vehicle control (SDs above negative control mean); higher = more surviving cells
# Settings: 10 µM; 3 days
row,Compound,total cell number
1,CNCc1ccc(-c2cc(-c3nc(-c4ccc(S(=O)(=O)C(C)C)cc4)cnc3N)on2)cc1,-14.8
2,CNC[C@H](O)c1ccc(O)c(O)c1 [Epinephrine HCl],-0.436
3,CNC[C@H](O)c1ccc(O)c(O)c1 [(-)-Epinephrine bitartrate],0.182
4,CNC[C@H](O)c1ccc(O)c(O)c1 [Epinephrine Bitartrate],0.13
5,CNC[C@H](O)c1ccc(O)c(O)c1 (racemic) [(±)-Epinephrine hydrochloride],-0.342
6,O=C(NCc1ccccc1)c1csc(Nc2ccncn2)n1 [Thiazovivin],-5.19
7,C=CC(=O)Nc1cc2c(Nc3ccc(F)c(Cl)c3)ncnc2cc1OCCCN1CCOCC1 [Canertinib (CI-1033)],-24.4
8,OC(CNCC(O)C1CCc2cc(F)ccc2O1)C1CCc2cc(F)ccc2O1 (centres undefined) [Nebivolol],-6.15
9,CC[C@H](C)[C@H](N)C1=N[C@H](C(=O)N[C@@H](CC(C)C)C(=O)N[C@H](CCC(=O)O)C(=O)N[C@H](C(=O)N[C@H]2CCCCNC(=O)[C@H](CC(N)=O)NC(=O)[C@@H](CC(=O)O)NC(=O)[C@H](Cc3cnc[nH]3)NC(=O)[C@@H](Cc3ccccc3)NC(=O)[C@H]([C@@H](C)CC)NC(=O)[C@@H](CCCN)NC2=O)[C@@H](C)CC)CS1 [Bacitracin],1.03
10,O=C(CCc1ccc(O)cc1)c1c(O)cc(O)cc1O [Phloretin],-0.713 ± 0.4
11,CCCCCCCCCCCCCCCC(=O)OC(CC(=O)O)C[N+](C)(C)C (racemic) [Palmitoyl-DL-Carnitine chloride],-0.836
12,O=C(O)c1cc(/N=N/c2ccc(O)c(C(=O)O)c2)ccc1O [Olsalazine Sodium],-1.09
13,COc1ccc2c(c1OC)C(=O)O[C@@H]2[C@H]1c2c(cc3c(c2OC)OCO3)CCN1C [Noscapine hydrchloride],-1.14
14,O=C(Nc1ccccc1-c1cn2c(CN3CCNCC3)csc2n1)c1cnc2ccccc2n1,-27.8
15,CNC(=O)c1cc(Oc2ccc(NC(=O)Nc3ccc(Cl)c(C(F)(F)F)c3)c(F)c2)ccn1 [Regorafenib (BAY 73-4506)],0.684
16,CC(C)C[C@H](NC(=O)[C@H](O)[C@H](N)Cc1ccccc1)C(=O)O [Epibestatin hydrochloride],-2.38
17,CN(C)CC(=O)Nc1ccc2[nH]c(=O)c3ccccc3c2c1,-5.5
18,CC(C)C[C@H](NC(=O)[C@@H](NC(=O)c1cccc(-c2ccccc2)n1)[C@@H](C)O)B(O)O,-22.6
19,CNC(=O)c1cc(Oc2ccc(NC(=O)Nc3cc(C(C)(C)C)nn3-c3ccc4ncccc4c3)c(F)c2)ccn1 [DCC-2036 (Rebastinib)],-10.3
20,OC[C@H]1O[C@H](O[C@]2(CCl)O[C@H](CCl)[C@@H](O)[C@@H]2O)[C@H](O)[C@@H](O)[C@H]1Cl [Sucralose],-0.382
21,Cc1nc(C#Cc2cccnc2)cs1 [MTEP hydrochloride],-2.19
22,O=C(O)c1cc(=O)cc(C(=O)O)[nH]1 [Chelidamic acid],-1.06
23,Nc1nc2ccc(OC(F)(F)F)cc2s1 [Riluzole],-2.38 ± 0.18
24,CN1CCC(=C2c3ccccc3CCc3cccnc32)CC1 [Azatadine dimaleate],-1.63
25,COc1ccc2c(c1)c(CC(=O)O)c(C)n2C(=O)c1ccc(Cl)cc1 [Indomethacin],-0.514 ± 0.14

row,Compound,total cell number
1,C(=C\c1ccccc1)/CN1CCN(C(c2ccccc2)c2ccccc2)CC1 [Cinnarizine],-2.96
2,C[C@@H]1CCO[C@H]2Cn3cc(C(=O)NCc4ccc(F)cc4F)c(=O)c(O)c3C(=O)N12,-1.73
3,O=C(C1CCCCC1)N1CC(=O)N2CCc3ccccc3C2C1 (centres undefined) [Praziquantel],3.35 ± 6.5
4,C[C@]1(O)C[C@@H](c2nc(-c3ccc4ccc(-c5ccccc5)nc4c3)c3c(N)nccn32)C1 [OSI-906 (Linsitinib)],-22.4
5,O=C(Oc1cc(S(=O)(=O)c2ccccc2)ccc1[N+](=O)[O-])c1ccc(Cl)cc1,0.667
6,CN(C)C(=O)[C@H](O)[C@H](Cc1ccccc1)NC(=O)c1cc2cc(Cl)ccc2[nH]1,0.79 ± 0.2
7,COc1ccc(C2CC(=O)c3c(O)cc(OC4OC(COC5OC(C)C(O)C(O)C5O)C(O)C(O)C4O)cc3O2)cc1OC (centres undefined) [Methyl-Hesperidin],-1.13
8,Cc1cc(CN2CCN(c3c(Br)cnc4nc(-c5ccc(N6CCN(C)CC6)cc5)[nH]c34)CC2)no1,-11.4
9,CC(=O)/C=C1/C(=O)N(C)c2ccccc21 [Supercinnamaldehyde],-2.46
10,N[C@@H](Cc1cc(I)c(Oc2ccc(O)c(I)c2)c(I)c1)C(=O)O [Liothyronine Sodium],2.19
11,Cc1ccc(=O)n(-c2ccccc2)c1 [Pirfenidone],-0.894 ± 0.42
12,CS(=O)(=O)c1ccc(-n2nc(C(F)(F)F)cc2-c2ccc(F)cc2)cc1,-0.978
13,C[C@H](CCC(=O)O)[C@H]1CC[C@H]2[C@@H]3[C@@H](O)C[C@@H]4C[C@H](O)CC[C@]4(C)[C@H]3CC[C@]12C [Ursodiol],1.96
14,Cc1cc(NC(=O)Nc2ccc3c(ccn3C)c2)sn1,-1.4
15,O=C(CCCN1CCN(c2ccccn2)CC1)c1ccc(F)cc1 [Azaperone],-0.285
16,O=C(Nc1ccncc1)c1cc([N+](=O)[O-])ccc1Cl,-5.18 ± 2.6
17,N[C@@H](CS(=O)O)C(=O)O [L-Cysteinesulfinic Acid],-1.64
18,COCCCN1CCC(NC(=O)c2cc(Cl)c(N)c3c2OCC3)CC1 [Prucalopride Succinat],0.55
19,COCCCN1CCC(NC(=O)c2cc(Cl)c(N)c3c2OCC3)CC1 [Prucalopride],0.665
20,C[C@@H](CN1CCC(Cc2ccccc2)CC1)[C@@H](O)c1ccc(O)cc1 [Ro 25-6981 hydrochloride],6.11
21,N#Cc1cc2nc(O)c(O)nc2cc1[N+](=O)[O-] [CNQX disodium],-0.302
22,COC(=O)C1=C(C#N)NC(C)=C(C(=O)OC(C)C)C1c1cccc([N+](=O)[O-])c1 (centres undefined) [Nilvadipine],-7.9
23,OCCN(CCO)c1nc(N2CCCCC2)c2nc(N(CCO)CCO)nc(N3CCCCC3)c2n1 [Dipyridamole],1.22 ± 0.84
24,Cc1ccc(NC(=O)c2cccc(C(C)(C)C#N)c2)cc1Nc1ccc2ncn(C)c(=O)c2c1,-5.53
25,CC[C@H](CO)Nc1nc(NCc2ccccc2)c2ncn(C(C)C)c2n1 [Roscovitine],-2.91

row,Compound,total cell number
1,"CC[C@H](CO)Nc1nc(NCc2ccccc2)c2ncn(C(C)C)c2n1 [Roscovitine (Seliciclib,CYC202)]",-7.35
2,C[N+](C)(C)CC(=O)O [Betaine hydrochloride],-1.13
3,CC[C@@H](C)Nc1cc(C(=O)N[C@H]2C[C@H]3CC[C@@H](C2)N3c2ccc(C(=O)C3CC3)cn2)c(C)cc1C(N)=O,-16.2
4,Cc1ccc(F)c(NC(=O)Nc2ccc(-c3cccc4[nH]nc(N)c34)cc2)c1 [Linifanib (ABT-869)],-13
5,CC(C)OC(=O)C1=CN(C(=O)c2ccc(F)c(F)c2)CC(C)(C)c2c1[nH]c1ccccc21,-1.15
6,CN1CCN(C(c2ccccc2)c2ccccc2)CC1 [Cyclizine 2HCl],0.00402
7,O=C(/C=C\n1cnc(-c2cc(C(F)(F)F)cc(C(F)(F)F)c2)n1)N1CC(F)(F)C1,-13.6
8,CC(C)(C)[N+]([O-])=Cc1ccc(S(=O)(=O)O)cc1S(=O)(=O)O,-1.02
9,Nc1nc(Cl)nc2c1ncn2[C@@H]1O[C@H](CO)[C@@H](O)[C@H]1O [2-Chloroadenosine],-3.18
10,NO [Hydroxylamine hydrochloride],-0.846
11,Cc1cccc(CC(=O)N2CCc3c2ccc(-c2cn(C)c4ncnc(N)c24)c3F)n1,-2.13 ± 0.79
12,Nc1cc(Cl)c(NC2=NCCN2)c(Cl)c1 [p-Aminoclonidine hydrochloride],-1.08
13,CC(C)OC(=O)OCOP(=O)(CO[C@H](C)Cn1cnc2c(N)ncnc21)OCOC(=O)OC(C)C [Tenofovir Disoproxil Fumarate],-9.72
14,O=C(Nc1cccc(C(=O)Nc2ccc(S(=O)(=O)O)c3cc(S(=O)(=O)O)cc(S(=O)(=O)O)c23)c1)Nc1cccc(C(=O)Nc2ccc(S(=O)(=O)O)c3cc(S(=O)(=O)O)cc(S(=O)(=O)O)c23)c1,-0.289
15,Cc1ccc(S(=O)(=O)Cc2nc(-c3ccc(C(=O)NCc4cccnc4)cc3)oc2C)cc1,-13.3
16,CNC(=O)c1cc(Oc2ccc(NC(=O)Nc3ccc(Cl)c(C(F)(F)F)c3)cc2)ccn1 [Sorafenib Tosylate],6.18
17,CNC(=O)c1cc(Oc2ccc(NC(=O)Nc3ccc(Cl)c(C(F)(F)F)c3)cc2)ccn1 [Sorafenib],3.2
18,COc1cccc2c1C(=O)c1c(O)c3c(c(O)c1C2=O)C[C@@](O)(C(C)=O)C[C@@H]3O[C@H]1C[C@H](N)[C@H](O)[C@H](C)O1 [Daunorubicin HCl],24.1
19,C=CC1=C(C(=O)O)N2C(=O)[C@@H](NC(=O)/C(=N\O)c3csc(N)n3)[C@H]2SC1 [Cefdinir],-2.33
20,CN1C(CCl)Nc2cc(Cl)c(S(N)(=O)=O)cc2S1(=O)=O (centres undefined) [Methyclothiazide],-9.64
21,OCc1ccccc1O[C@@H]1O[C@H](CO)[C@@H](O)[C@H](O)[C@H]1O [Salicin],-13.3
22,Nc1ncnc2c1nc(Br)n2C1OC2COP(=O)(O)O[C@@H]2C1O (some centres undefined) [8-Bromo-cAMP sodium],-0.722
23,C=C1CC[C@@H]2[C@](C)(CO)[C@H](O)CC[C@@]2(C)[C@@H]1C/C=C1/C(=O)OC[C@H]1O [Andrographolide],-9.57
24,Cc1cn([C@H]2C=C[C@@H](CO)O2)c(=O)[nH]c1=O [Stavudine (d4T)],-0.233
